Measurements published in the supplement of paper PMC12423691.
Some of the results follow. Binding of human transcription factors and regulators to the viral nucleoprotein by AlphaScreen, crude cell-free proteins, amounts not normalised, one pass. Fold of the Venus control; higher = more signal. No active / inactive call. Single-pass screen; sequences are the whole Swiss-Prot entries looked up by name.

B1: ZNF280D, Q6N043 (protein)
chain: MGDNPFQPKSNSKMAELFMECEEEELEPWQKKVKEVEDDDDDEPIFVGEISSSKPAISNILNRVNPSSYSRGLKNGALSRGITAAFKPTSQHYTNPTSNPVPASPINFHPESRSSDSSVIVQPFSKPGYITNSSRVVSNKSSELLFDLTQDTGLSHYQGGPTLSMAGMSESSFLSKRPSTSEVNNVNPKKPKPSESVSGANSSAVLPSVKSPSVTSSQAMLAKGTNTSSNQSKNGTPFPRACPKCNIHFNLLDPLKNHMKYCCPDMINNFLGLAKTEFSSTVNKNTTIDSEKGKLIMLVNDFYYGKHEGDVQEEQKTHTTFKCFSCLKILKNNIRFMNHMKHHLELEKQSSESWENHTTCQHCYRQFPTPFQLQCHIESTHTPHEFSTICKICELSFETEHVLLQHMKDNHKPGEMPYVCQVCNYRSSSFSDVETHFRTSHENTKNLLCPFCLKVIKIATPYMHHYMKHQKKGIHRCTKCRLQFLTCKEKMDHKTQHHRTFIKPKQLEGLPPGTKVTIRASVGPLQSGASPTPSISASASTLQLSPPRTKNITAKNPAKSNTSKPNTVKSNASKPNTSKPNGSKSKYKPKISNMQKKQSTLASSNKKSKVNTALRNLRYRRGIHKCIECCSEIKDFANHFPTYVHCSFCRYNTSCSKAYVNHMMSFHSNRPSKRFCIFKKHSENLRGITLVCLNCDFLSDVSGLDNMATHLSQHKTHTCQVVMQKVSVCIPTSEHLSELKKEAPAKEQEPVSKEIARPNMAERETETSNSESKQDKAASSKEKNGCNANSFEGSSTTKSEESITVSDKENETCLADQETGSKNIVSCDSNIGADKVEKKKQIQHVCQEMELKMCQSSENIILSDQIKDHNSSEARFSSKNIKDLRLASDNVSIDQFLRKRHEPESVSSDVSEQGSIHLEPLTPSEVLEYEATEILQKGSGDPSAKTDEVVSDQTDDIPGGNNPSTTEATVDLEDEKERS
B2: SRY, Q05066 (protein)
chain: MQSYASAMLSVFNSDDYSPAVQENIPALRRSSSFLCTESCNSKYQCETGENSKGNVQDRVKRPMNAFIVWSRDQRRKMALENPRMRNSEISKQLGYQWKMLTEAEKWPFFQEAQKLQAMHREKYPNYKYRPRRKAKMLPKNCSLLPADPASVLCSEVQLDNRLYRDDCTKATHSRMEHQLGHLPPINAASSPQQRDRYSHWTKL
B3: FOXN4, Q96NZ1 (protein)
chain: MIESDTSSIMSGIIRNSGQNHHPSPQEYRLLATTSDDDLPGDLQSLSWLTAVDVPRLQQMASGRVDLGGPCVPHPHPGALAGVADLHVGATPSPLLHGPAGMAPRGMPGLGPITGHRDSMSQFPVGGQPSSGLQDPPHLYSPATQPQFPLPPGAQQCPPVGLYGPPFGVRPPYPQPHVAVHSSQELHPKHYPKPIYSYSCLIAMALKNSKTGSLPVSEIYSFMKEHFPYFKTAPDGWKNSVRHNLSLNKCFEKVENKMSGSSRKGCLWALNLARIDKMEEEMHKWKRKDLAAIHRSMANPEELDKLISDRPESCRRPGKPGEPEAPVLTHATTVAVAHGCLAVSQLPPQPLMTLSLQSVPLHHQVQPQAHLAPDSPAPAQTPPLHALPDLSPSPLPHPAMGRAPVDFINISTDMNTEVDALDPSIMDFALQGNLWEEMKDEGFSLDTLGAFADSPLGCDLGASGLTPASGGSDQSFPDLQVTGLYTAYSTPDSVAASGTSSSSQYLGAQGNKPIALL
B4: SATB1, Q01826 (protein)
chain: MDHLNEATQGKEHSEMSNNVSDPKGPPAKIARLEQNGSPLGRGRLGSTGAKMQGVPLKHSGHLMKTNLRKGTMLPVFCVVEHYENAIEYDCKEEHAEFVLVRKDMLFNQLIEMALLSLGYSHSSAAQAKGLIQVGKWNPVPLSYVTDAPDATVADMLQDVYHVVTLKIQLHSCPKLEDLPPEQWSHTTVRNALKDLLKDMNQSSLAKECPLSQSMISSIVNSTYYANVSAAKCQEFGRWYKHFKKTKDMMVEMDSLSELSQQGANHVNFGQQPVPGNTAEQPPSPAQLSHGSQPSVRTPLPNLHPGLVSTPISPQLVNQQLVMAQLLNQQYAVNRLLAQQSLNQQYLNHPPPVSRSMNKPLEQQVSTNTEVSSEIYQWVRDELKRAGISQAVFARVAFNRTQGLLSEILRKEEDPKTASQSLLVNLRAMQNFLQLPEAERDRIYQDERERSLNAASAMGPAPLISTPPSRPPQVKTATIATERNGKPENNTMNINASIYDEIQQEMKRAKVSQALFAKVAATKSQGWLCELLRWKEDPSPENRTLWENLSMIRRFLSLPQPERDAIYEQESNAVHHHGDRPPHIIHVPAEQIQQQQQQQQQQQQQQQAPPPPQPQQQPQTGPRLPPRQPTVASPAESDEENRQKTRPRTKISVEALGILQSFIQDVGLYPDEEAIQTLSAQLDLPKYTIIKFFQNQRYYLKHHGKLKDNSGLEVDVAEYKEEELLKDLEESVQDKNTNTLFSVKLEEELSVEGNTDINTDLKD
B5: ETV4, P43268 (protein)
chain: MERRMKAGYLDQQVPYTFSSKSPGNGSLREALIGPLGKLMDPGSLPPLDSEDLFQDLSHFQETWLAEAQVPDSDEQFVPDFHSENLAFHSPTTRIKKEPQSPRTDPALSCSRKPPLPYHHGEQCLYSSAYDPPRQIAIKSPAPGALGQSPLQPFPRAEQRNFLRSSGTSQPHPGHGYLGEHSSVFQQPLDICHSFTSQGGGREPLPAPYQHQLSEPCPPYPQQSFKQEYHDPLYEQAGQPAVDQGGVNGHRYPGAGVVIKQEQTDFAYDSDVTGCASMYLHTEGFSGPSPGDGAMGYGYEKPLRPFPDDVCVVPEKFEGDIKQEGVGAFREGPPYQRRGALQLWQFLVALLDDPTNAHFIAWTGRGMEFKLIEPEEVARLWGIQKNRPAMNYDKLSRSLRYYYEKGIMQKVAGERYVYKFVCEPEALFSLAFPDNQRPALKAEFDRPVSEEDTVPLSHLDESPAYLPELAGPAQPFGPKGGYSY
B6: RBCK1, Q9BYM8 (protein)
chain: MDEKTKKAEEMALSLTRAVAGGDEQVAMKCAIWLAEQRVPLSVQLKPEVSPTQDIRLWVSVEDAQMHTVTIWLTVRPDMTVASLKDMVFLDYGFPPVLQQWVIGQRLARDQETLHSHGVRQNGDSAYLYLLSARNTSLNPQELQRERQLRMLEDLGFKDLTLQPRGPLEPGPPKPGVPQEPGRGQPDAVPEPPPVGWQCPGCTFINKPTRPGCEMCCRARPEAYQVPASYQPDEEERARLAGEEEALRQYQQRKQQQQEGNYLQHVQLDQRSLVLNTEPAECPVCYSVLAPGEAVVLRECLHTFCRECLQGTIRNSQEAEVSCPFIDNTYSCSGKLLEREIKALLTPEDYQRFLDLGISIAENRSAFSYHCKTPDCKGWCFFEDDVNEFTCPVCFHVNCLLCKAIHEQMNCKEYQEDLALRAQNDVAARQTTEMLKVMLQQGEAMRCPQCQIVVQKKDGCDWIRCTVCHTEICWVTKGPRWGPGGPGDTSGGCRCRVNGIPCHPSCQNCH

biological target: nucleoprotein N of Crimean-Congo hemorrhagic fever virus; test: AlphaScreen luminescence signal relative to Venus negative control (fold); higher = stronger binding to CCHFV N
Experimental: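 AlphaScreen binding of cell-free made, FLAG-GST-tagged human transcription factors and regulators (crude translation products) to biotinylated N protein; signal as fold of the FLAG-GST-Venus control. One pass.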

Binder | AlphaScreen luminescence signal
B1 | 2.88
B2 | 2.56
B3 | 2.42
B4 | 1.67
B5 | 2.65
B6 | 2.23
